Test results as given in the supplement of paper PMC8728848.
The other results are listed elsewhere or left out.

What was measured:
Assay in all cases: glycan array binding signal (z-score within array); higher = stronger binding
Details in all cases: glycan notation: IUPAC condensed, linker removed
[1] = target: GlcNAc(b1-3)Gal(b1-4)GlcNAc(b1-3)Gal(b1-4)GlcNAc(b1-2)Man(a1-3)[GlcNAc(b1-3)Gal(b1-4)GlcNAc(b1-3)Gal(b1-4)GlcNAc(b1-2)Man(a1-6)]Man(b1-4)GlcNAc(b1-4)GlcNAc
Outline: (§1)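 Columns mapping to the same glycan were averaged after glycan names were converted to IUPAC-condensed notation. The data come from 3228 arrays in the Consortium for Functional Glycomics database, limited to those with an available protein sequence. Binding is reported as a within-array Z-score averaged across arrays of one protein sequence and across linkers.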

[2] = target: GlcNAc(b1-3)Gal(b1-4)GlcNAc(b1-3)Gal(b1-4)GlcNAc(b1-2)Man(a1-3)[GlcNAc(b1-3)Gal(b1-4)GlcNAc(b1-3)Gal(b1-4)GlcNAc(b1-2)Man(a1-6)]Man(b1-4)GlcNAc(b1-4)[Fuc(a1-6)]GlcNAc
Outline: as §1

[3] = target: GlcNAc(b1-3)Gal(b1-4)GlcNAc(b1-3)Gal(b1-4)GlcNAc(b1-2)[GlcNAc(b1-3)Gal(b1-4)GlcNAc(b1-3)Gal(b1-4)GlcNAc(b1-6)]Man(a1-6)[GlcNAc(b1-3)Gal(b1-4)GlcNAc(b1-3)Gal(b1-4)GlcNAc(b1-2)Man(a1-3)]Man(b1-4)GlcNAc(b1-4)[Fuc(a1-6)]GlcNAc
Outline: as §1

[4] = target: GlcNAc(b1-3)Gal(b1-4)GlcNAc(b1-3)Gal(b1-4)GlcNAc(b1-3)Gal(b1-4)GlcNAc(b1-2)Man(a1-3)[GlcNAc(b1-3)Gal(b1-4)GlcNAc(b1-3)Gal(b1-4)GlcNAc(b1-3)Gal(b1-4)GlcNAc(b1-2)Man(a1-6)]Man(b1-4)GlcNAc(b1-4)GlcNAc
Outline: as §1

[5] = target: GlcNAc(b1-3)Gal(b1-4)GlcNAc(b1-3)Gal(b1-4)GlcNAc(b1-3)Gal(b1-4)GlcNAc(b1-2)Man(a1-3)[GlcNAc(b1-3)Gal(b1-4)GlcNAc(b1-3)Gal(b1-4)GlcNAc(b1-3)Gal(b1-4)GlcNAc(b1-2)Man(a1-6)]Man(b1-4)GlcNAc(b1-4)[Fuc(a1-6)]GlcNAc
Outline: as §1

[6] = target: GlcNAc(b1-3)Gal(b1-4)GlcNAc(b1-3)Gal(b1-4)GlcNAc(b1-3)Gal(b1-4)GlcNAc(b1-2)[GlcNAc(b1-3)Gal(b1-4)GlcNAc(b1-3)Gal(b1-4)GlcNAc(b1-3)Gal(b1-4)GlcNAc(b1-6)]Man(a1-6)[GlcNAc(b1-3)Gal(b1-4)GlcNAc(b1-3)Gal(b1-4)GlcNAc(b1-3)Gal(b1-4)GlcNAc(b1-2)Man(a1-3)]Man(b1-4)GlcNAc(b1-4)[Fuc(a1-6)]GlcNAc
Outline: as §1

[7] = target: GlcNAc(b1-3)Gal(b1-4)GlcNAc(b1-3)Gal(b1-4)GlcNAc(b1-3)Gal(b1-4)GlcNAc(b1-3)Gal(b1-4)GlcNAc(b1-2)Man(a1-3)[GlcNAc(b1-3)Gal(b1-4)GlcNAc(b1-3)Gal(b1-4)GlcNAc(b1-3)Gal(b1-4)GlcNAc(b1-3)Gal(b1-4)GlcNAc(b1-2)Man(a1-6)]Man(b1-4)GlcNAc(b1-4)GlcNAc
Outline: as §1

[8] = target: GlcNAc(b1-3)Gal(b1-4)GlcNAc(b1-3)Gal(b1-4)GlcNAc(b1-3)Gal(b1-4)GlcNAc(b1-3)Gal(b1-4)GlcNAc(b1-2)Man(a1-3)[GlcNAc(b1-3)Gal(b1-4)GlcNAc(b1-3)Gal(b1-4)GlcNAc(b1-3)Gal(b1-4)GlcNAc(b1-3)Gal(b1-4)GlcNAc(b1-2)Man(a1-6)]Man(b1-4)GlcNAc(b1-4)[Fuc(a1-6)]GlcNAc
Outline: as §1

[9] = target: GlcNAc(b1-3)Gal(b1-4)GlcNAc(b1-3)Gal(b1-4)GlcNAc(b1-3)Gal(b1-4)GlcNAc(b1-3)Gal(b1-4)GlcNAc(b1-2)[GlcNAc(b1-3)Gal(b1-4)GlcNAc(b1-3)Gal(b1-4)GlcNAc(b1-3)Gal(b1-4)GlcNAc(b1-3)Gal(b1-4)GlcNAc(b1-6)]Man(a1-6)[GlcNAc(b1-3)Gal(b1-4)GlcNAc(b1-3)Gal(b1-4)GlcNAc(b1-3)Gal(b1-4)GlcNAc(b1-3)Gal(b1-4)GlcNAc(b1-2)Man(a1-3)]Man(b1-4)GlcNAc(b1-4)[Fuc(a1-6)]GlcNAc
Outline: as §1

[10] = target: GlcNAc(b1-3)Gal(b1-4)GlcNAc(b1-3)Gal(b1-4)GlcNAc(b1-3)GalNAc
Outline: as §1

[11] = target: GlcNAc(b1-3)Gal(b1-4)GlcNAc(b1-3)GalNAc
Outline: as §1

[12] = target: GlcNAc(b1-3)Gal(b1-4)GlcNAc(b1-3)[GlcNAc(b1-3)Gal(b1-4)GlcNAc(b1-3)]GalNAc
Outline: as §1

[13] = target: GlcNAc(b1-3)Gal(b1-4)GlcNAc(b1-6)[Gal(b1-3)]GalNAc
Outline: as §1

[14] = target: GlcNAc(b1-3)Gal(b1-4)GlcNAc(b1-6)[GlcNAc(b1-3)Gal(b1-3)]GalNAc
Outline: as §1

[15] = target: GlcNAc(b1-3)Gal(b1-4)GlcNAc(b1-6)[GlcNAc(b1-3)]Gal(b1-4)GlcNAc
Outline: as §1

[16] = target: GlcNAc(b1-3)GalNAc
Outline: as §1

[17] = target: GlcNAc(b1-3)Man
Outline: as §1

[18] = target: GlcNAc(b1-3)[GlcNAc(b1-4)][GlcNAc(b1-6)]GlcNAc
Outline: as §1

[19] = target: GlcNAc(b1-3)[GlcNAc(b1-6)]Gal(b1-4)GlcNAc
Outline: as §1

[20] = target: GlcNAc(b1-3)[GlcNAc(b1-6)]GalNAc
Outline: as §1

[21] = target: GlcNAc(b1-4)Gal(b1-4)GlcNAc
Outline: as §1

[22] = target: GlcNAc(b1-4)GlcNAc
Outline: as §1

[23] = target: GlcNAc(b1-4)GlcNAc(b1-4)GlcNAc
Outline: as §1

[24] = target: GlcNAc(b1-4)GlcNAc(b1-4)GlcNAc(b1-4)GlcNAc(b1-4)GlcNAc
Outline: as §1

[25] = target: GlcNAc(b1-4)GlcNAc(b1-4)GlcNAc(b1-4)GlcNAc(b1-4)GlcNAc(b1-4)GlcNAc
Outline: as §1

[26] = target: GlcNAc(b1-4)[GlcNAc(b1-6)]GalNAc
Outline: as §1

[27] = target: GlcNAc(b1-6)Gal(b1-4)GlcNAc
Outline: as §1

[28] = target: GlcNAc(b1-6)GalNAc
Outline: as §1

[29] = target: GlcNAc6S(b1-3)Gal(b1-4)GlcNAc
Outline: as §1

[30] = target: Kdn(a2-3)Gal(b1-3)GalNAc
Outline: as §1

[31] = target: Kdn(a2-3)Gal(b1-3)GlcNAc
Outline: as §1

[32] = target: Kdn(a2-3)Gal(b1-4)Glc
Outline: as §1

[33] = target: Kdn(a2-3)Gal(b1-4)GlcNAc
Outline: as §1

[34] = target: Kdn(a2-3)Gal(b1-4)[Fuc(a1-3)]GlcNAc
Outline: as §1

[35] = target: Kdn(a2-6)Gal(b1-4)GlcNAc
Outline: as §1

[36] = target: Man(a1-2)Man(a1-2)Man(a1-3)Man
Outline: as §1

[37] = target: Man(a1-2)Man(a1-2)Man(a1-6)[Man(a1-3)]Man
Outline: as §1

[38] = target: Man(a1-2)Man(a1-3)Man
Outline: as §1

B1: DC-ASGPR L+GEE (Homo sapiens) (protein)
chain: MTRTYENFQYLENKVKVQGFKNGPLPLQSLLQRLRSGPCHLLLSLGLGLLLLVIICVVGFQNSKFQRDLVTLRTDFSNFTSNTVAEIQALTSQGSSLEETIASLKAEVEGFKQERQAGVSELQEHTTQKAHLGHCPHCPSVCVPVHSEMLLRVQQLVQDLKKLTCQVATLNNNGEEASTEGTCCPVNWVEHQDSCYWFSHSGMSWAEAEKYCQLKNAHLVVINSREEQNFVQKYLGSAYTWMGLSDPEGAWKWVDGTDYATGFQNWKPGQPDDWQGHGLGGGEDCAHFHPDGRWNDDVCQRPYHWVCEAGLGQTSQESH
glycan array binding signal (z-score) [1]: 0.53
glycan array binding signal (z-score) [2]: -0.152
glycan array binding signal (z-score) [3]: 0.194
glycan array binding signal (z-score) [4]: -0.234
glycan array binding signal (z-score) [5]: -0.283
glycan array binding signal (z-score) [6]: -0.052
glycan array binding signal (z-score) [7]: -0.085
glycan array binding signal (z-score) [8]: 0.512
glycan array binding signal (z-score) [9]: 0.566
glycan array binding signal (z-score) [10]: 0.01
glycan array binding signal (z-score) [11]: -0.202
glycan array binding signal (z-score) [12]: -0.4
glycan array binding signal (z-score) [13]: -0.411
glycan array binding signal (z-score) [14]: 0.098
glycan array binding signal (z-score) [15]: -0.159
glycan array binding signal (z-score) [16]: -0.439
glycan array binding signal (z-score) [17]: -0.363
glycan array binding signal (z-score) [18]: -0.818
glycan array binding signal (z-score) [19]: -0.85
glycan array binding signal (z-score) [20]: -0.432
glycan array binding signal (z-score) [21]: -0.38
glycan array binding signal (z-score) [22]: -0.468
glycan array binding signal (z-score) [23]: -0.556
glycan array binding signal (z-score) [24]: 0.2
glycan array binding signal (z-score) [25]: -0.834
glycan array binding signal (z-score) [26]: -0.471
glycan array binding signal (z-score) [27]: -0.162
glycan array binding signal (z-score) [28]: 3.71
glycan array binding signal (z-score) [29]: -0.225
glycan array binding signal (z-score) [30]: -0.402
glycan array binding signal (z-score) [31]: 0.041
glycan array binding signal (z-score) [32]: -0.481
glycan array binding signal (z-score) [33]: -0.074
glycan array binding signal (z-score) [34]: -0.506
glycan array binding signal (z-score) [35]: -0.08
glycan array binding signal (z-score) [36]: -0.611
glycan array binding signal (z-score) [37]: -0.725
glycan array binding signal (z-score) [38]: -0.345
